Data published in PubChem BioAssay AID624417 (National Center for Advancing Translational Sciences (NCATS), 2012).
Out of some 410,000 compounds screened, about 6,400 (1.6%) were called active. Inconclusive results, whose numbers are uncertain, are shown with a selection of clear calls. The call rests on the fitted dose curve; in most records, active means well fitted inhibition curve with a large enough effect; inconclusive means small, poorly fitted or top-dose-only effect; inactive means no such curve, though single readings can be large or run the other way. No potency is given beside an inconclusive call; the fits are too rough.

target: Glucagon-like peptide 1 receptor (Homo sapiens) (UniProt P43220); test: qHTS of GLP-1 Receptor Inverse Agonists (Inhibition Mode); conditions: HEK293 GLP-1R CRE-luciferase, luminescence, 24 h, GLP-1R form is constitutively active; activity change, negative = inhibition: at 38.3 µM (top of the series) unless noted; further: nearly all actives have a fitted effect of over 55% in size
How it was run: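 qHTS in 1536-well format: reporter HEK293 cells expressing constitutive GLP-1R activity in DMEM + 10% Nu serum, 24 hr with compounds at 37 deg C, luminescence read after 12 min with detection reagent.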
On the % scale 0 is the no-effect control and ±100 the full control effect; potency means the concentration at half of the fitted maximal effect; tags describe the fitted curve by direction and shape.

Chain of UniProt P43220 (P43220 whole entry, looked up): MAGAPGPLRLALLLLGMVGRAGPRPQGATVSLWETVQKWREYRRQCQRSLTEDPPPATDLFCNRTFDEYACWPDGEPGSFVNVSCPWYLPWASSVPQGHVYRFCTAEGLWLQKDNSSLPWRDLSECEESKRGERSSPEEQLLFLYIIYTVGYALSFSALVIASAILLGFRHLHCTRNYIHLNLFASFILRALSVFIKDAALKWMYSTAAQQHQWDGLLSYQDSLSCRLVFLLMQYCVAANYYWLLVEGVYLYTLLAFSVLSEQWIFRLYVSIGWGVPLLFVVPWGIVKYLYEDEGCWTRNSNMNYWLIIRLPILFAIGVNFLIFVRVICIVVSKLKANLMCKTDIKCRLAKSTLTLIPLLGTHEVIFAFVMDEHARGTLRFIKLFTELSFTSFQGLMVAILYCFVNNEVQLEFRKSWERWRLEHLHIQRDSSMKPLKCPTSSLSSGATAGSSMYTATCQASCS

Structure (SMILES)	Potency	activity change, negative = inhibition
COc1ccccc1CCNC(=O)c1ccc(NC(=O)N2CC(C)Sc3ccccc32)cc1 (stereo not given)	inconclusive [inhibitor, partial curve, poor fit]	
CCCCNC(=O)CNC(=S)N(Cc1ccc(C)cc1)Cc1ccco1	inconclusive [inhibitor, partial curve, poor fit]	
NC(CSC1(c2ccc(F)cc2)c2ccccc2-c2ccccc21)C(=O)O (stereo not given)	inconclusive [inhibitor, partial curve, poor fit]	
CCOc1cccc(OCCCOc2cccc3cccnc23)c1	inconclusive [inhibitor, single point]	
CN1CCC(C2(O)c3ccccc3CCc3ccccc32)CC1	inconclusive [inhibitor, partial curve]	
COc1ccc(S(=O)(=O)Oc2ccc3ccccc3c2)cc1	inconclusive [inhibitor, single point]	
CCCCn1cc(S(=O)(=O)c2ccc(CC)cc2)c(=O)c2cc(F)c(N3CCCC(C)C3)cc21 (stereo not given)		inactive: 5.83%
Cc1ccc(C(=O)N/C(=C\c2cn(S(=O)(=O)N(C)C)c3ccccc23)C(=O)N2CCCC2)cc1	inconclusive [inhibitor, single point]	
COc1ccc2cc(C(=O)C3CCCN(Cc4cnc(C)s4)C3)ccc2c1 (stereo not given)	inconclusive [inhibitor, full curve, poor fit]	
CCOC(=O)C1CCCN(C(=O)CSc2ccc(Br)cc2)C1 (stereo not given)	inconclusive [inhibitor, partial curve]	
CC1CC(=S)Nc2ccccc2N1Cc1ccccc1 (stereo not given)	inconclusive [inhibitor, partial curve]	
O=C(/C=C/c1ccccc1)N1CCC(Cc2ccccc2)CC1	inconclusive [inhibitor, single point]	
COC(=O)[C@@]1(Cc2ccccc2)[C@H]2C(=O)N(C)C(=O)[C@H]2[C@H]2CN=C(SCC(=O)c3ccccc3)N21		inactive: 29.8%
O=C(Nc1cccc(S(=O)(=O)N2CCCCC2)c1)C1COc2ccccc2O1 (stereo not given)	inconclusive [inhibitor, single point]	
COc1cc(CNCCO)cc(Cl)c1OCc1ccccc1Cl	inconclusive [inhibitor, full curve, poor fit]	
O=C1CCC(C(=O)N2CCCCCCC2)CN1Cc1cccc(C(F)(F)F)c1 (stereo not given)	inconclusive [inhibitor, partial curve, poor fit]	
CC(C)(C)C(=O)Cn1c(=O)n(CCCCCC(=O)NCc2ccc3c(c2)OCO3)c(=O)c2sccc21	inconclusive [inhibitor, partial curve]	
Cc1cc(C)nc(SCc2nc3ncccn3c2Br)n1		inactive: 86.5%
O=C(/C=C/c1ccc2c(c1)OCO2)NCCSCc1cccc(Cl)c1	inconclusive [inhibitor, partial curve, poor fit]	
COc1ccc(CCNC(=O)c2cc(C(=O)c3cc(Cl)ccc3O)cn(CCc3ccc(OC)cc3)c2=O)cc1	inconclusive [inhibitor, full curve, poor fit]	

Structure (SMILES)	Potency	activity change, negative = inhibition
CC(=O)c1ccc(NC(=O)c2ccc(C)c(Br)c2)cc1	inconclusive [inhibitor, single point]	
CSc1cccc(NC(=O)NCc2cccc(CNC(=O)Nc3cccc(SC)c3)c2)c1	inconclusive [inhibitor, single point]	
CC(C)c1c(C(=O)N/N=C/c2cccc(OCc3ccc(F)cc3)c2)nnn1-c1nonc1N	inconclusive [inhibitor, partial curve, poor fit]	
Cc1cccc(OCC(=O)NC(=S)Nc2ccccc2N2CCOCC2)c1	inconclusive [inhibitor, single point]	
COc1ccccc1NC(=O)CN1CCC(C(=O)c2ccc(F)cc2)CC1		inactive: -4.3%
CC(C)(C)NC(=O)C1Cc2ccccc2CN1C(=O)Nc1cccc(Cl)c1 (stereo not given)	inconclusive [inhibitor, single point]	
COc1ccc(CCNC(=O)c2ccc3c(c2)CCN3S(=O)(=O)c2ccc(Cl)cc2)cc1	inconclusive [inhibitor, single point]	
O=C(Nc1ccc(F)cc1)Nc1nnc(COc2ccccc2F)s1	inconclusive [inhibitor, single point]	
C/C(=N\NC(=O)C1(C)CC1(Br)Br)c1cccc(NC(=O)c2ccc(C)o2)c1 (stereo not given)	inconclusive [inhibitor, partial curve, poor fit]	
O=C(CN1CCN(Cc2ccc(F)cc2)CC1)Nc1nc2ccccc2s1	inconclusive [inhibitor, single point]	
COc1ccc(/C=C/C(=O)OC2CCCCC2CN(C)C)cc1 (stereo not given)	inconclusive [inhibitor, partial curve, poor fit]	
O=C(NC1CCCCC1)C1CC=CCC1C(=O)OCC(Cl)=C(Cl)Cl (stereo not given)	inconclusive [inhibitor, single point]	
CS(=O)(=O)Nc1cccc(C(=O)OCCCOc2ccc(F)cc2)c1	inconclusive [inhibitor, partial curve, poor fit]	
Cc1cccc(Oc2nc3ccccn3c(=O)c2/C=C(\C#N)c2nc3ccccc3s2)c1C		inactive: 13.9%
COc1cc(Cl)c(C)cc1NC(=O)CCCN1C(=O)C(c2ccccc2)Oc2cccnc21 (stereo not given)	inconclusive [inhibitor, single point]	
CCOc1ccccc1C1CC(=O)NC(C)=C1C(=O)OC1CCCCCC1 (stereo not given)		inactive: -0.204%
COC(=O)c1ccc(/C=C2\Oc3ccccc3NC2=O)cc1		inactive: 62%
Cc1ccc(-c2cc(C(=O)NCc3ccccn3)c3ccccc3n2)cc1C	inconclusive [inhibitor, partial curve, poor fit]	
O=C(COc1cccc(C(F)(F)F)c1)NCCCN1CCCC1=O	inconclusive [inhibitor, single point]	
O=C(Nc1cc(S(=O)(=O)Nc2ccc(Cl)cc2)ccc1O)c1ccc(S(=O)(=O)N2CCCCCC2)cc1	inconclusive [inhibitor, single point]	
